Measurements as given in paper PMC10726135.
This is one part of the list. At the low end of the ranking the order means little. The protein was read in a cell extract, so binding may be indirect.

The sequences below were run against T1, HNF4alpha2 (COS-7 nuclear extract) (UniProt P41235) (assay: protein-binding microarray). Settings: COS-7 nuclear extract on double-stranded Agilent 4x180k PBM; binding buffer, salt, pH and temperature not given; high values mean tight binding; double strand, one strand shown; sequences stand for … in …GCCTAGGGAGATTAGAGTATCGGTCGA.
T1 sequence: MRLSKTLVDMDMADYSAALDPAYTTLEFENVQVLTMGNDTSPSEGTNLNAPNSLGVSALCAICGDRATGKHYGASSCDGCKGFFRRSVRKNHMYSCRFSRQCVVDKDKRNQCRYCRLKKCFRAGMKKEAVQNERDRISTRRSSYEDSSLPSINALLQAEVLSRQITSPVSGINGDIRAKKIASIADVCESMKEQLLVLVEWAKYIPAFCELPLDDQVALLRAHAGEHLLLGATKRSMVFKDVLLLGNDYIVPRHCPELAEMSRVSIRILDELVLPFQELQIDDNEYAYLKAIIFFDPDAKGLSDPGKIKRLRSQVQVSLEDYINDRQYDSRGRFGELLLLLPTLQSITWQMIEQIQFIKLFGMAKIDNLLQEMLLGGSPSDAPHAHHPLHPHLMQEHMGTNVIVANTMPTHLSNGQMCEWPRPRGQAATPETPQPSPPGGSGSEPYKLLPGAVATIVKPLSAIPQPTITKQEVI

Sequence	binding signal (log2 normalized intensity)
TCCCATCCCACTAGGTGGCGCTGTTGACCT	3.79
CATCTCCAGTTCCAAAGTCCAGGTGCTTTC	4.48
ACCTCCTGACTAAAGTTCATTGCTTTGAGC	1.68
GACAAACAGACTTCACACTAGAAGACTCAT	-1.12
GCTACAGAGCTCAGATTTCAAGGTGAGCAG	-1.07
AATGGAATACTTGCCTAAGGTCAATGTCCT	3.23
CCTGACCCCCTCCTCACCCCACTTTGGTTC	4.61
TAGATCAGCTTTCAACACTCTGGATTCCTC	-1.15
GGAATGCAGTAGTGCGATGATCATGGCTCA	-0.935
ACAGCCTTTTCTTATCAGGCTCATTCTAAC	-0.858
TTTTTGTTCCACTGGTAACTAGGTTAATGT	1.83
TAGAACGCTGACTCCGGGGAGCAGGCAGAG	-1.11
TCAAGCCTTTGACTCGAATGCGAACCTGTC	0.537
TTTGATCTCTTATCACCCTGAACAGTGGCT	0.123
CTAGAGCCAAGGAAGAGAAGACCAAACAAC	-1.02
AACACAGAACTATCAAACATTTTTGCAACA	-1.1
CCAGCCACGCCCTCTAACCCAGGTTCCCGT	-1.26
ACGCCGGCCAATCCGGCTGGCAGCCGATTG	-1.16
TCCTCTGGAGGCCAAAAGTAGGGAGGAGGG	-1.07
CAAAGGACAAATCTCACTGATAGTCTCCTA	-1.03
CTGACCTTTGCCCCCAGCCTCTCACAGTAG	6.87
TCAACCAGGTTCTCTTTACTGAACGCTGCG	-1.17
AGAACCTGGAACCTAGAGGCCTTTCTCTCT	-1.16
GCAGGGAGGATATCCCTCCGCCTCCCTCCC	2.82
TTTGTGTGGTGAGGAAAAGGAGGAGTTTGA	0.669

Sequence	binding signal (log2 normalized intensity)
GAGTTTGGCCCCAGTTCCCATGGACTGGTT	0.253
GGCAGGACTCTGTCCTGGGCACTGTCCTAG	-0.209
TGGGTGGGGGAAGTGTGGTCAAGGGTCAGT	4
GGGACTAGAACTCAGTGTGAACTCAATGCT	-1.02
CACTCCCTGGAGCAAACTTACTCTGGGGGA	-1.09
GCCGTTCAGGGCCACGGGAAAACCTGACTG	-1.14
ACTTTCTGACTGGCCTGGGAACCCCAAGTT	0.686
TAGGATTAAACACGTTTTATTAGGGGTCAG	3.27
CAAGGAAATCTGGGAAATGTAGCTTTTAAA	-1.16
ACAGGTGGGGGTAAACATAGCAGAAGACCC	-0.722
CTCTCTCTCTCTCACACACACACACACACA	2.03
GGATGGGGTGCAAACTCACCTGGAGAAGCA	-1.1
CCCATTCCTTAGTGCATGGGAACTTCTCAC	0.137
GGCATATCCAACCTTCTCCCACTTCCCTGC	0.618
AAAGGTCTTTGGTGGTGGGGGGTAGCCACT	0.77
CTCAGGCCGACCCCTGCCTGGACTGTCCTA	2.03
TTCTTGCTGCAGCTGGGCTATACAATTCCA	-1.18
CCGTGGTGTATGATGACGCCACGCCGCTCT	-1.08
GCCTTGTGTACTGAGCAGGGTCCAACCCAC	2.7
GGCTTCCCAACTCCATTATCTCTGTAAAAG	0.732
GGATGGACTTTAATCTCCAAGTAACTGAAA	3.01
ACAAAACAGCGTACTGTGCTAAAGAGTGAT	-0.918
GTAAACACAGACTTTGGAATCACAATGATA	1.97
ATGTTATCATTAGGGAAAATAGTGACCCTG	3.24
AACCCTGTTCTTGTAGGATTTCCAAGTGGA	1.54

Sequence	binding signal (log2 normalized intensity)
GGTATTACAAAGCAATCTACTTTTCTTTTG	0.209
GGTATTGAGGGAGCAAAGGGCATGGAGGAT	2.42
GGTAACATCAAAGCCAGGACTTCTAGAGTG	-1.22
TCCATTTCTGCCCCTTGCTCCTGCTTGCTG	1.83
TCGGGGCCTGGTCTGCACTCCAGGAAAGAC	-0.674
TGCAGCAAAACTTTAGGACTTTGAACCTTG	8.63
CTGGCAAATGAAATGTAATCAGCAAGTTTT	0.0878
AAATCAGAACAGTCTGTGACTTGATCTTTG	2.27
CAGGACGTGAAGCAACTAGAACTCTCAGAC	-1.14
AAGGCTGACCACGGGGGCCGCTCTCCCTCC	-1.09
CCATGCAAGTTCCCACAGAGCCCACCATGT	-1.18
CCCTTGGTGTTTAAACACATTTTTTTTTTT	1.7
CCACTGGTTTGCACACACCAAAGCCCAAGG	-1.08
TGGGTCGTTGGTGCTCCCCCACCCTGTGTC	4.69
AAAGACGCGGAGCGGGGGACCGAGAGCCGC	-0.863
GTCTGAGTGCTCATGATGGGAAGCCTCAGG	-1.08
ATTAAACATCTTGCCCACATTCACACAATC	0.834
AGGACAGCCAGGCAGTCGGGAAATTCCAGC	-0.944
CATGTAGTCACATACCTATGCAAACAGCGC	-0.575
GCGGGCCGGGAGGGGGACGCTTTCTGGCGC	-1.2
TTCTTGAGCTACCGCCTGAACCTTGGATCT	3.35
GAGACCTGTTCTGTTCCCTGGACTCAGCTC	1.43
TTAGACATGTTTACTTTTGCAAGGTTTGTT	1.75
